Among the data in the supplement of paper PMC10126150 are switch fluorescence ratio values, retold here.

Sequences with one replicate were seen in a single cluster, so their values are uncertain.

In the series the test system is ATP. As to the kind of experiment: switch fluorescence ratio, 500 uM ATP over buffer (Cy3 cluster intensity, sum of 5 cycles each) (fold (ratio)); higher = stronger signal-on switching upon ATP binding; sequences stand for … in TCGTCGGCAGCGTCAGATGTGTATAAGAGACAGTTTTTTTTTTTTTTTTTTTTTTTTT…TC. The conditions noted are these: aptamer strand: ATP DNA aptamer (quencher-CACCTGGGGGAGTATTGCGGAGGAAGG + anchor), 100 nM annealed; ATP concentration: 500 uM; one replicate. In outline:
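Imaging in selection buffer was followed by imaging after 15 min with 500 uM ATP at 22 °C, for Cy3-labelled switching-strand clusters annealed to 100 nM quencher-labelled ATP aptamer on a modified Illumina MiSeq flow-cell. Five of these buffer/ATP cycles ran, separated by NaOH stripping and re-annealing. The fluorescence ratio per cluster is summed target-cycle over summed buffer-cycle Cy3 intensity, averaged per switch-domain sequence; clusters outside 100-1000 RFU were removed.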
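Note: ATP exposure 15 min at 22 °C before imaging.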

Turning to TGAATGTGTT, the switch fluorescence ratio was 0.977.

Take TAGCATGAA: the switch fluorescence ratio was 1.03.

On to AATGGTGTTT, for which the switch fluorescence ratio worked out at 0.968.

As for GGTTACCT, the switch fluorescence ratio was found to be 1.12.

Regarding TACCCTAATG, the switch fluorescence ratio was determined as 1.09.

GAGCGTTTTA: the switch fluorescence ratio came to 1.

ACTCAGGCGT: the switch fluorescence ratio stood at 1.09.

CGTACTTCAA: the switch fluorescence ratio was found to be 1.05.

Consider TCGAGAGG, for which the switch fluorescence ratio was found to be 1.05.

Turning to GGAACTTTGA, the switch fluorescence ratio was determined as 0.992.

Turning to CGGTAGCCCG, the switch fluorescence ratio worked out at 0.915.

With ACGGTACCAT, the switch fluorescence ratio worked out at 1.34.

Consider TTCGGTGAAT, for which the switch fluorescence ratio is 0.99.

Regarding TGGACGTATA, the switch fluorescence ratio was found to be 1.32.

With AGTTACCGCT, the switch fluorescence ratio amounted to 1.03.

On to CATTATAGCT, for which the switch fluorescence ratio was determined as 0.999.

Turning to AAGGGAAGAA, the switch fluorescence ratio turned out to be 0.981.

With AGCGGTGGGC, the switch fluorescence ratio is 0.995.

For GGTGTAGAC, the switch fluorescence ratio was 1.02.

In the case of AATGTACACT, the switch fluorescence ratio stood at 1.06.

With CCACATCATG, the switch fluorescence ratio stood at 1.02.

CACCATGTCT: the switch fluorescence ratio is 1.

On to CCTGAACCGA, for which the switch fluorescence ratio amounted to 1.2.

For GCTTTTACCG, the switch fluorescence ratio stood at 1.04.

GCGGCACTTG: the switch fluorescence ratio was 1.02.

Turning to CAGCGGGAAC, the switch fluorescence ratio is 1.13.

With GACGGCACAC, the switch fluorescence ratio was determined as 1.29.

In the case of TTTATAGGTA, the switch fluorescence ratio worked out at 1.06.

With TGGACGTAGC, the switch fluorescence ratio is 1.07.

Take CTGGATTGAC: the switch fluorescence ratio was 1.05.

Consider ATAGCGGGAT, for which the switch fluorescence ratio was determined as 1.07.

TTGTAATAGC: the switch fluorescence ratio amounted to 2.56.

Turning to TTGAAGATAT, the switch fluorescence ratio was found to be 0.948.

With ACATAAATTG, the switch fluorescence ratio is 1.04.

For TATTGCGAG, the switch fluorescence ratio was 0.956.

With GAGTCCCTAT, the switch fluorescence ratio came to 1.05.

Regarding TGCGCAGGAT, the switch fluorescence ratio was found to be 1.06.

For the sequence GGAATAAATA, the switch fluorescence ratio came to 0.989.

For AATAGGCCAC, the switch fluorescence ratio turned out to be 1.03.

With GAGGAGGACA, the switch fluorescence ratio turned out to be 0.96.

Take AAGGGCTCGT: the switch fluorescence ratio was 1.01.

As for CCTGATGGCG, the switch fluorescence ratio is 1.02.

As for AACGTGGGTC, the switch fluorescence ratio was found to be 0.958.

GCGGTTAACT: the switch fluorescence ratio was determined as 1.02.

GGGCCCTAAG: the switch fluorescence ratio is 0.962.

As for TCCCTTGAAT, the switch fluorescence ratio is 1.02.

Take GGTTAAGCG: the switch fluorescence ratio is 0.99.

As to TCGTTCGCCC, the switch fluorescence ratio was 1.14.

CCAATGGCGT: the switch fluorescence ratio was found to be 1.01.

TGCCTCTTTC: the switch fluorescence ratio was found to be 0.996.

For CACAACACAC, the switch fluorescence ratio worked out at 1.41.

Regarding TCTTTAAAAG, the switch fluorescence ratio was found to be 0.993.

Regarding ACATAACGGC, the switch fluorescence ratio worked out at 1.02.

As to AGTGGGACAC, the switch fluorescence ratio is 0.954.

Regarding GGAGTGAATT, the switch fluorescence ratio amounted to 0.985.

Consider TGATGAGAGC, for which the switch fluorescence ratio turned out to be 1.11.

Take ATATGTACTT: the switch fluorescence ratio was determined as 1.15.

As for ATGGTTGCGG, the switch fluorescence ratio was found to be 1.01.

Take CACGATTCTA: the switch fluorescence ratio was 1.01.

Consider TCGTTTTAAG, for which the switch fluorescence ratio worked out at 0.981.

As for CCTGAGTCAT, the switch fluorescence ratio was 1.12.

Take GGGCTGCTTT: the switch fluorescence ratio amounted to 1.01.

Take AAACCCGTTT: the switch fluorescence ratio was determined as 1.01.

In the case of CACAGGAGGC, the switch fluorescence ratio amounted to 1.08.

As for AGCGCTAGTT, the switch fluorescence ratio is 1.01.

As to CTTCGCTAGT, the switch fluorescence ratio was 1.78.

Regarding TTCGTGATGT, the switch fluorescence ratio worked out at 0.975.

Regarding ATCTGATTGT, the switch fluorescence ratio was 0.974.

For GTGAGATGGT, the switch fluorescence ratio was found to be 0.962.

CTTTGGGCA: the switch fluorescence ratio worked out at 0.982.

Regarding TATGAAGCGC, the switch fluorescence ratio amounted to 0.974.

As to TCATGCACCG, the switch fluorescence ratio was 1.01.

As for AGTTCTGTTG, the switch fluorescence ratio was determined as 1.04.

With TCTTGATATT, the switch fluorescence ratio came out at 1.03.

Take TCAGCTTATC: the switch fluorescence ratio was 1.12.

For the sequence GAACAGGACG, the switch fluorescence ratio came to 1.1.

TCGGACGCGA: the switch fluorescence ratio was found to be 2.59.

On to GCTTGCTAAC, for which the switch fluorescence ratio was found to be 0.989.

For TGTGATGATA, the switch fluorescence ratio is 0.989.

As for GAGATCGTT, the switch fluorescence ratio was found to be 0.939.

Regarding GACTGAGT, the switch fluorescence ratio was 0.984.

As for TTTAGAATTG, the switch fluorescence ratio was 1.01.

As to CCGTGGCCT, the switch fluorescence ratio is 1.04.

For the sequence TGTGCGCGTT, the switch fluorescence ratio stood at 1.03.

On to GTGTAATATG, for which the switch fluorescence ratio amounted to 0.989.

As for TCACAGCTTT, the switch fluorescence ratio was determined as 0.955.

Regarding GACTATAGGG, the switch fluorescence ratio stood at 0.986.

Take CCTTAGGCTA: the switch fluorescence ratio was found to be 1.4.

CCGTCGGTCC: the switch fluorescence ratio amounted to 1.32.

Turning to AGGTCTCGGG, the switch fluorescence ratio was 1.03.

For the sequence CGACATGGAT, the switch fluorescence ratio stood at 1.07.

Consider ATGTGACGGA, for which the switch fluorescence ratio was 0.988.

Regarding ACTAATGCAC, the switch fluorescence ratio came to 1.09.

As for TATTCTAGAA, the switch fluorescence ratio turned out to be 1.03.

Turning to CCATTACACT, the switch fluorescence ratio was found to be 1.13.

With AGAAGGATAT, the switch fluorescence ratio was 0.945.

CATTCCTGAT: the switch fluorescence ratio is 1.01.

Regarding GAAGTTGTTA, the switch fluorescence ratio was 1.

In the case of TCGGTTATGT, the switch fluorescence ratio came out at 0.986.

For the sequence CGGCCGCCAA, the switch fluorescence ratio came to 3.41.

Turning to ACGCTGGAGT, the switch fluorescence ratio is 0.946.

TATGGGGCCG: the switch fluorescence ratio turned out to be 1.06.

As for AGTATCTTCT, the switch fluorescence ratio is 0.967.

For the sequence AGGGTGAGA, the switch fluorescence ratio was found to be 0.99.

TCATCCATAA: the switch fluorescence ratio worked out at 1.18.

ATAGAACAG: the switch fluorescence ratio was found to be 1.4.

With GACTAGCGGG, the switch fluorescence ratio is 0.961.

Turning to TAGTACGCCT, the switch fluorescence ratio was determined as 1.

Turning to CAAATCTACG, the switch fluorescence ratio was determined as 1.05.

Take TCAATATCTG: the switch fluorescence ratio came out at 0.978.

Turning to AGAGGCCGGT, the switch fluorescence ratio is 0.969.

As for AGCGGGATCA, the switch fluorescence ratio was found to be 1.01.

With CGGTGAGGAG, the switch fluorescence ratio was found to be 0.942.

Take GACGGGCGAG: the switch fluorescence ratio was determined as 1.

For the sequence TGGGTTATTC, the switch fluorescence ratio is 1.04.

Turning to AGAAGAGGAG, the switch fluorescence ratio was 0.983.

For CGGTTCGGG, the switch fluorescence ratio came to 1.02.

Consider ATAATTAGCT, for which the switch fluorescence ratio was found to be 1.03.

Turning to AGATTGTCTG, the switch fluorescence ratio came out at 0.95.

For the sequence TGGGCAGAGT, the switch fluorescence ratio is 0.975.
